Holding throughout (test): CLSI broth microdilution in RPMI 1640, up to 16 µg/mL, 48 h at 37 °C; full growth inhibition.
For orientation: Broth dilution looks for growth in wells or tubes with falling amounts of substance.

Compound in assay [1]: CCC(C)n1ncn(-c2ccc(N3CCN(c4ccc(OCC5COC(Cn6cncn6)(c6ccc(Cl)cc6Cl)O5)cc4)CC3)cc2)c1=O [itraconazole]
Compound in assay [2]: CC(C)(C)C(O)(CCc1ccc(Cl)cc1)Cn1cncn1 [tebuconazole]
Compound in assay [3]: C[C@@H](c1ncncc1F)[C@](O)(Cn1cncn1)c1ccc(F)cc1F [voriconazole]
Compound in assay [4]: CC[C@@H]([C@H](C)O)n1ncn(-c2ccc(N3CCN(c4ccc(OC[C@@H]5CO[C@@](Cn6cncn6)(c6ccc(F)cc6F)C5)cc4)CC3)cc2)c1=O [posaconazole]

This passage reports MIC results from the supplement of paper PMC11022549.

MIC (lowest dose with no growth) of environmental A. fumigatus isolates, CLSI broth microdilution in RPMI 1640, up to 16 µg/mL, 48 h at 37 °C, mean of two or three runs; higher = less susceptible. No active / inactive call per row; the paper counts tebuconazole above 3, itraconazole and voriconazole above 2 and posaconazole above 0.25 µg/mL as resistant. The source writes 17 for growth at the top dose; shown as '>' 16, and '>=' 16 where runs were 16 and above. cyp51A changes are as printed. Isolates are numbered anew.

Broadly, the MIC is the lowest concentration found to suppress growth. On to “Aspergillus fumigatus isolate 67 (cyp51A: TR46/Y46F/Y121F/V172M/T248N/E255D/T289A/K427E)”, for which the MIC in assay [1] is 3 µg/mL; in assay [2] it was over 16 µg/mL; in assay [3] it was over 16 µg/mL; in assay [4], 1 µg/mL.
For the test system “Aspergillus fumigatus isolate 31 (cyp51A: T248N/E255D)”, the MIC in assay [1] turned out to be 1.5 µg/mL; in assay [2], 2 µg/mL; in assay [3], 0.5 µg/mL; in assay [4], 0.5 µg/mL.
In the case of “Aspergillus fumigatus isolate 91 (cyp51A: Y46F/V172M/T248N/E255D/K427E)”, the MIC in assay [1] was determined as 2 µg/mL; in assay [2], 6 µg/mL; in assay [3], 0.75 µg/mL; in assay [4] it was 0.75 µg/mL.
With “Aspergillus fumigatus isolate 83 (cyp51A: T248N/E255D)”, the MIC was 1 µg/mL in assay [1], 2 µg/mL in assay [2], 0.5 µg/mL in assay [3] and 0.5 µg/mL in assay [4].
On to “Aspergillus fumigatus isolate 34 (cyp51A: T248N/E255D)”, for which the MIC was 1.5 µg/mL in assay [1], 4 µg/mL in assay [2], 1 µg/mL in assay [3] and 0.5 µg/mL in assay [4].
With “Aspergillus fumigatus isolate 76 (cyp51A: TR34/Y46F/L98H/V172M/T248N/E255D/K427E)”, the MIC in assay [1] turned out to be 12 µg/mL; in assay [2] it was 16 µg/mL; in assay [3], 3 µg/mL; in assay [4], 1 µg/mL.
In the case of “Aspergillus fumigatus isolate 73 (cyp51A: TR46/Y46F/Y121F/V172M/T248N/E255D/T289A/K427E)”, the MIC in assay [1] was 1.5 µg/mL; in assay [2], over 16 µg/mL; in assay [3], over 16 µg/mL; in assay [4], 1 µg/mL.
On to “Aspergillus fumigatus isolate 66 (cyp51A: Y46F/V172M/T248N/E255D/K427E)”, for which the MIC in assay [1] is 1.5 µg/mL; in assay [2] it was 2 µg/mL; in assay [3] it was 0.5 µg/mL; in assay [4], 0.5 µg/mL.
Regarding “Aspergillus fumigatus isolate 97 (cyp51A: Y46F/V172M/T248N/E255D/K427E)”, the MIC in assay [1] amounted to 3 µg/mL; in assay [2] it was 8 µg/mL; in assay [3], 2 µg/mL; in assay [4] it was 1 µg/mL.
As to “Aspergillus fumigatus isolate 64 (cyp51A: WT)”, the MIC in assay [1] was determined as 2 µg/mL; in assay [2] it was 4 µg/mL; in assay [3], 1 µg/mL; in assay [4], 0.5 µg/mL.
Consider “Aspergillus fumigatus isolate 81 (cyp51A: TR34/Y46F/L98H/V172M/T248N/E255D/K427E)”, for which the MIC amounted to 16 µg/mL in assay [1], 16 µg/mL in assay [2], 4 µg/mL in assay [3] and 1 µg/mL in assay [4].
Take “Aspergillus fumigatus isolate 18 (cyp51A: TR46/Y46F/Y121F/V172M/T248N/E255D/T289A/K427E)”: the MIC is 2 µg/mL in assay [1], over 16 µg/mL in assay [2], over 16 µg/mL in assay [3] and 0.5 µg/mL in assay [4].
On to “Aspergillus fumigatus isolate 11 (cyp51A: T248N/E255D)”, for which the MIC came to 1 µg/mL in assay [1], 2 µg/mL in assay [2], 0.375 µg/mL in assay [3] and 0.5 µg/mL in assay [4].
For the test system “Aspergillus fumigatus isolate 74 (cyp51A: TR34/Y46F/L98H/V172M/T248N/E255D/K427E)”, the MIC in assay [1] is at least 16 µg/mL; in assay [2], at least 16 µg/mL; in assay [3] it was 3 µg/mL; in assay [4] it was 1 µg/mL.
For the test system “Aspergillus fumigatus isolate 45 (cyp51A: TR34/Y46F/L98H/V172M/T248N/E255D/K427E)”, the MIC in assay [1] is over 16 µg/mL; in assay [2], over 16 µg/mL; in assay [3] it was 4 µg/mL; in assay [4], 1.5 µg/mL.
“Aspergillus fumigatus isolate 4 (cyp51A: T248N/E255D)”: the MIC in assay [1] turned out to be 2 µg/mL; in assay [2] it was 8 µg/mL; in assay [3], 2 µg/mL; in assay [4], 1 µg/mL.
In the case of “Aspergillus fumigatus isolate 19 (cyp51A: T248N/E255D)”, the MIC stood at 1 µg/mL in assay [1], 2 µg/mL in assay [2], 0.5 µg/mL in assay [3] and 0.5 µg/mL in assay [4].
In the case of “Aspergillus fumigatus isolate 20 (cyp51A: TR46/Y46F/Y121F/V172M/T248N/E255D/T289A/K427E)”, the MIC was 1.33 µg/mL in assay [1], at least 16 µg/mL in assay [3] and 0.66 µg/mL in assay [4].
With “Aspergillus fumigatus isolate 26 (cyp51A: Y46F/V172M/T248N/E255D/K427E)”, the MIC in assay [2] was determined as 2 µg/mL.
For “Aspergillus fumigatus isolate 60 (cyp51A: TR34/Y46F/L98H/V172M/T248N/E255D/K427E)”, the MIC in assay [2] is at least 16 µg/mL; in assay [3], 4 µg/mL; in assay [4] it was 1 µg/mL.
Consider “Aspergillus fumigatus isolate 23 (cyp51A: Y46F/V172M/T248N/E255D/K427E)”, for which the MIC in assay [2] is 1 µg/mL.
With “Aspergillus fumigatus isolate 3 (cyp51A: Y46F/V172M/T248N/E255D/K427E)”, the MIC in assay [2] turned out to be 1 µg/mL.
In the case of “Aspergillus fumigatus isolate 32 (cyp51A: Y46F/V172M/T248N/E255D/K427E)”, the MIC in assay [2] was determined as 1 µg/mL.
The same measure, in the same setting: the figure for “Aspergillus fumigatus isolate 57 (cyp51A: Y46F/V172M/T248N/E255D/K427E)” is 1.5 µg/mL.
In the case of “Aspergillus fumigatus isolate 55 (cyp51A: TR34/Y46F/L98H/V172M/T248N/E255D/K427E)”, the MIC in assay [2] was at least 16 µg/mL; in assay [3], 4 µg/mL; in assay [4], 1.33 µg/mL.
In the case of “Aspergillus fumigatus isolate 50 (cyp51A: Y46F/V172M/T248N/E255D/K427E)”, the MIC in assay [2] came out at 2 µg/mL.
Turning to “Aspergillus fumigatus isolate 9 (cyp51A: Y46F/V172M/T248N/E255D/K427E)”, in assay [2], the MIC came to 1 µg/mL.
On the same count and under the same terms, the figure for “Aspergillus fumigatus isolate 16 (cyp51A: T248N/E255D)” is 2 µg/mL.
Take “Aspergillus fumigatus isolate 71 (cyp51A: Y46F/V172M/T248N/E255D/K427E)”: the MIC in assay [2] was found to be 1 µg/mL.
Same read-out and setting: next, “Aspergillus fumigatus isolate 85 (cyp51A: Y46F/V172M/T248N/E255D/K427E)”: 2 µg/mL.
Same read-out and setting: next, “Aspergillus fumigatus isolate 69 (cyp51A: Y46F/V172M/T248N/E255D/K427E)”: 1.5 µg/mL.
In the case of “Aspergillus fumigatus isolate 80 (cyp51A: T248N/E255D)”, in assay [2], the MIC turned out to be 1.5 µg/mL.
As for “Aspergillus fumigatus isolate 7 (cyp51A: Y46F/V172M/T248N/E255D/K427E)”, the MIC in assay [2] worked out at 1 µg/mL.
Turning to “Aspergillus fumigatus isolate 51 (cyp51A: Y46F/V172M/T248N/E255D/K427E)”, the MIC in assay [2] came out at 2 µg/mL.
“Aspergillus fumigatus isolate 21 (cyp51A: TR34/Y46F/L98H/V172M/T248N/E255D/K427E)”: the MIC is over 16 µg/mL in assay [1], 1 µg/mL in assay [3] and 1.33 µg/mL in assay [4].
Take “Aspergillus fumigatus isolate 65 (cyp51A: Y46F/V172M/T248N/E255D/K427E)”: the MIC in assay [2] stood at 1.5 µg/mL.
